The text below walks through data of PMC4336329 (PLoS ONE, 2015).

The whole screen tested about 310,000 compounds, of which about 2,200 (0.71%) showed an effect of 50% or more. Effects have a minus sign here. This is one part of the list.

Chain of human ether-à-go-go-related gene (hERG) potassium channel (Q12809 whole entry, looked up): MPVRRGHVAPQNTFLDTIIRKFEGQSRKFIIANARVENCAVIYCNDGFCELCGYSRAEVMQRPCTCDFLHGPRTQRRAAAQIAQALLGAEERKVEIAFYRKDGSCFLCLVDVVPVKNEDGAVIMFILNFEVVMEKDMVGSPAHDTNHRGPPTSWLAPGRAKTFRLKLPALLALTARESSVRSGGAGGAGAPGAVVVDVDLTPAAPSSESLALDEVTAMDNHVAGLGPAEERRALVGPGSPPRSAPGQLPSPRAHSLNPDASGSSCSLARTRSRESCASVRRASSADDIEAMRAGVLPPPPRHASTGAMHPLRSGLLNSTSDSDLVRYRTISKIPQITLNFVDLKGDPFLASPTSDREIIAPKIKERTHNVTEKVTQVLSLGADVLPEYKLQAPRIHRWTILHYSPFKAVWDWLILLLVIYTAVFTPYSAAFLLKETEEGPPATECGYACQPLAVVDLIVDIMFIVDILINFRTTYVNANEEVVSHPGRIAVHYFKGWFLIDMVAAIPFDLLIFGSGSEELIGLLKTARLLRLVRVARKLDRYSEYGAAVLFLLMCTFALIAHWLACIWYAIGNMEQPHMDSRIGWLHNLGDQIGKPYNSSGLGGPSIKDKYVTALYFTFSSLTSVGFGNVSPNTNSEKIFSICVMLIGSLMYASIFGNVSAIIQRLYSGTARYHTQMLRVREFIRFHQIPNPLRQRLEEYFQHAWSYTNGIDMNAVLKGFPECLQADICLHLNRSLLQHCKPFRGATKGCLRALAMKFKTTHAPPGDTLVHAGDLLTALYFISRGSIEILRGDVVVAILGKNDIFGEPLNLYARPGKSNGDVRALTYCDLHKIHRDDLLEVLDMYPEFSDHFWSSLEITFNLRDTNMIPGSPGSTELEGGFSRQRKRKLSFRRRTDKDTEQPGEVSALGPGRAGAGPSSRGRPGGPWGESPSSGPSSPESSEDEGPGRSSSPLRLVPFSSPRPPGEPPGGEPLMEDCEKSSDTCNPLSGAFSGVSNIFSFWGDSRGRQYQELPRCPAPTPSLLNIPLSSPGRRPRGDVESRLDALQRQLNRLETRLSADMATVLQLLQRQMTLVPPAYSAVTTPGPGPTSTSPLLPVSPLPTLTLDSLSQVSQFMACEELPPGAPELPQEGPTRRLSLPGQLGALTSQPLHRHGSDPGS

The test has as its target human ether-à-go-go-related gene (hERG) potassium channel (human, UniProt Q12809). In words: primary screen, population patch clamp on CHO cells stably expressing hERG.
Turning to `C/C=C/C(=O)Nc1ccc(N2CCN(c3ccc(C(F)(F)F)cn3)CC2)nc1`, the “hERG current change (%, negative = inhibition) at 1uM” value is listed as 9.74%.

Turning to `COc1ccc(NC(=O)COc2ccc(C(=O)OCC(=O)N(C)C3CCS(=O)(=O)C3)cc2OC)cc1` (stereo not drawn), the “hERG current change (%, negative = inhibition) at 1uM” value is listed as 14.6%. Then `COc1ccccc1NC(=O)C(=O)NNC(=O)c1ccco1`, with 8.22%; and `COc1cccc(NC(=O)Cn2c(=O)n(CCC(=O)NCc3ccco3)c(=O)c3ccccc32)c1`, with 2.13%.

Turning to `CN(C(=O)CSc1nc2ccccc2o1)C1CCS(=O)(=O)C1` (stereo not drawn), the “hERG current change (%, negative = inhibition) at 1uM” value was -3.04%. Then `O=C(c1cccnc1)N(Cc1ccccc1)c1ccccc1`, with -7.73%; and `CC(=O)c1cccc(NC(=O)CN(C)S(=O)(=O)c2ccc3c(c2)CC(C)N3C(C)=O)c1` (stereo not drawn), with 17.7%; and `COc1cc(/C=C2/SC(=S)N(CC(=O)O)C2=O)ccc1OC(=O)c1cccs1`, with 13.4%. The figure for `CCOCCCNC(=S)N(CCCN(C)C)Cc1cc2cc3c(cc2[nH]c1=O)OCCO3` is 1.61%. Then `Clc1cccc(Cl)c1CO/N=C/c1cccs1`, with 11%; and `O=C(Nc1cc(=O)[nH]c(=O)[nH]1)c1cc(Cl)ccc1Cl`, with 22%; and `N#CC1=C(c2ccccc2)/C(=C/c2ccccc2)OC1=O`, with 6.62%. Consider `CCOc1cccc(=O)c2c(C)n(-c3ccc(C(=O)O)cc3)c(C)c12`, for which the “hERG current change (%, negative = inhibition) at 1uM” value was 18.3%. Then `CC1CN(C(=O)CCC(=O)N2CCN(c3cccc(C(F)(F)F)c3)CC2)c2ccccc2O1` (stereo not drawn), with 2.99%; and `CC1(C)Cc2c(cnn2-c2ccc(F)cc2)C(NC(=O)c2ccoc2)C1` (stereo not drawn), with -95.7%. Then `O=C(NC(C(=O)c1ccccc1)N1CCCCC1)c1ccccc1` (stereo not drawn), with 8.23%; and `Nc1ccc([N+](=O)[O-])cc1`, with 13.6%. The figure for `CNC(=S)NNC(=O)c1sc2cc(C(F)(F)F)cnc2c1-c1ccccn1` is 4.79%. As to `COC(=O)C1CCN(C(=O)COC(=O)Cc2c[nH]c3ccccc23)CC1`, the “hERG current change (%, negative = inhibition) at 1uM” value worked out at 5.1%. Then `O=C(NCc1ccccc1)NC1(C(=O)N2CCOCC2)CCCCC1`, with 6.64%. For the molecule `COc1ccc(S(=O)(=O)Nc2ccc3c(c2)OCCO3)cc1Cl`, the “hERG current change (%, negative = inhibition) at 1uM” value is reported as 5.1%. Consider `CC(OC(=O)/C=C/c1ccco1)C(=O)NC1CCCCC1C` (stereo not drawn), for which the “hERG current change (%, negative = inhibition) at 1uM” value is 4.12%. The figure for `CC1(c2ccccc2)NC(=O)N(CC(=O)N2CCOCC2)C1=O` (stereo not drawn) is 7.93%; for `COc1cc(C(=O)NC2CCN(Cc3ccccc3)CC2)cc(Cl)c1OC` it is -1.24%. Then `O=C(CCc1nnc2n(Cc3ccc(F)cc3)c(=O)c3ccccc3n12)NCCCN1CCOCC1`, with 10.5%. Then `COc1ccc(C(=O)CCC(=O)NCCc2c[nH]c3ccccc23)cc1`, with 4.74%; and `O=C(c1ccc(F)cc1)N1CCN(c2ccc([N+](=O)[O-])c(N3CCCCC3)c2)CC1`, with 9.28%; and `Cc1cccc(C)c1NC1=C(Cl)C(=O)OC1OC(C)C` (stereo not drawn), with 19.8%. Turning to `O=C(Nc1nccs1)c1cn2ccccc2n1`, the “hERG current change (%, negative = inhibition) at 1uM” value came out at 9.99%. Then `O=C(CCCSc1ccc(Cl)cc1)Nc1ccccc1O`, with 13.9%. As to `O=C(Nc1c(F)cc(F)cc1Br)c1cc(S(=O)(=O)N2CCN(c3ccccn3)CC2)ccc1F`, the “hERG current change (%, negative = inhibition) at 1uM” value is listed as 0.58%. The figure for `Cc1ccc(NC(=O)Nc2ccc3c(c2)nnn3C)cc1C` is 20.8%; for `Cc1cn(COC/C=C/c2ccccc2)c(=O)[nH]c1=O` it is 7.16%. As for `COc1ccc(-n2c(SCC(=O)N3CCOCC3)nc(O)c(Cc3ccccc3)c2=O)cc1`, the “hERG current change (%, negative = inhibition) at 1uM” value is reported as 11.3%. Then `S=c1[nH]nc(-c2cccnc2)n1/N=C/c1ccccc1`, with 10.9%; and `CCC/C(C)=N\Nc1nc2c(c(=O)n(C)c(=O)n2C)n1C`, with 9.59%; and `CC1=C(C(=O)OC(C)C)[C@@H](c2ccc(C)o2)NC(=O)N1`, with 17.5%. Then `CCOc1ccc(N(CC(=O)NC2CCCCC2)C(=O)CCC(=O)Nc2nccs2)cc1`, with 0.629%; and `CCC1CCCCN1C(=O)CSc1nc2c(c(=O)n1C)SC(C)C2` (stereo not drawn), with -1.54%; and `O=C(Nc1ccc2c(c1)OCO2)N1CCCc2ccccc21`, with 9.3%. The figure for `CC(=O)NCC(=O)OCC(=O)N1c2ccccc2Sc2ccccc21` is 10.1%.

Regarding `O=C(Nc1ccc(CN2CCOCC2)cc1)c1ccco1`, the “hERG current change (%, negative = inhibition) at 1uM” value was 9.74%. The figure for `O=C(CCN1N=C(c2ccccc2)CCC1=O)NCC1COc2ccccc2O1` (stereo not drawn) is 4.36%; for `N#Cc1ccc(/C=N/NC(=O)c2ccccc2F)cc1` it is 9.55%. Take `Cc1nnn(-c2nonc2N)c1C(=O)N/N=C/c1ccccc1O`: the “hERG current change (%, negative = inhibition) at 1uM” value came to 10.8%. On to `Cc1ccc(NC(NC(=O)c2cccs2)C(Cl)(Cl)Cl)cc1C` (stereo not drawn), for which the “hERG current change (%, negative = inhibition) at 1uM” value worked out at 11.7%. On to `CC(O)CNc1nc2ccccc2n1CC(=O)NCC(F)(F)F` (stereo not drawn), for which the “hERG current change (%, negative = inhibition) at 1uM” value was found to be 5.03%. In the case of `COc1ccc(OC)c(S(=O)(=O)N(C)CC(=O)N2CCN(c3cccc(Cl)c3)CC2)c1`, the “hERG current change (%, negative = inhibition) at 1uM” value was -2.54%. For `Cc1cc(C(=O)NCC2COc3ccccc3O2)c2ccccc2n1` (stereo not drawn), the “hERG current change (%, negative = inhibition) at 1uM” value is on record as 7.15%. The figure for `CCC(CC)C(=O)Nc1ccc(Cl)c(Cl)c1` is 9.86%; for `O=C(Cn1nc(-c2ccccc2)c2ccccc2c1=O)Nc1ccc(F)cc1` it is 13.3%. Then `Nc1c(Cl)cnn(-c2ccccc2)c1=O`, with 12.3%; and `CC1=C(C(=O)OCc2ccccc2)C(c2cccc([N+](=O)[O-])c2)NC(=O)N1` (stereo not drawn), with 15.1%.

Take `CCOc1ccccc1NC(=O)COC(=O)C1CCC1`: the “hERG current change (%, negative = inhibition) at 1uM” value turned out to be 5.87%.

On to `COC(=O)c1[nH]c2c(c1C)C(=O)CC(c1cc(OC)c(OC)c(OC)c1)C2` (stereo not drawn), for which the “hERG current change (%, negative = inhibition) at 1uM” value was found to be 3.77%. The figure for `CCOc1cc(C(=O)N/N=C/C(Br)=C/c2ccccc2)cc(OCC)c1OCC` is 7.24%; for `CC1(C)CC(=O)c2cc(OCC(=O)N3CCN(c4ccccc4F)CC3)ccc2O1` it is 10.5%.
